In PubChem BioAssay AID1963576 (National Center for Advancing Translational Sciences (NCATS), 2024):
In all, about 46,000 compounds went through this assay and about 60 (0.1%) were called active. Another 3% or so got no clear call; they are omitted. Calls follow the shape of the dose curve; as a rule, active = well fitted inhibition curve with a large enough effect; inconclusive = small, poorly fitted or top-dose-only effect; inactive = no such curve, though single readings can be large or run the other way. The list shows a part of the results.

Experiment: Primary qHTS assay for Inhibitors of ovarian cancer metastasis using an organotypic tumor microenvironment (TME) model. Also: nearly all actives have a fitted effect of over 65% in size.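 As to activity change, negative = inhibition: plate controls were DMSO wells for no effect and tomatine positive control wells for full effect.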
Conditions: SKOV3ip1-GFP adhesion/invasion on 3D omental model, fluorescence; series mostly up to 45.8 µM; activity change, negative = inhibition: at the top concentration
Method in brief: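 Primary human omental fibroblast/mesothelial 3D culture pre-formed 48 h. SKOV3ip1-GFP cells added with compounds (0.36-46 umol/L), incubated 2 h RT/16 h 37 C, fixed; GFP cells quantified at 488/509 nm.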

Activity change, negative = inhibition, inactive:
CCCn1c(SCc2nc(-c3ccccc3OCC)no2)nnc1-c1ccc(Cl)cc1 -3.18%, N#Cc1nc(COc2cccc(Cl)c2)oc1NCCc1ccccc1 4.94%, CC(C)c1ccc(NC(=O)CSc2nc(=O)n(Cc3ccccn3)c3c2CCC3)cc1 7.68%, Cc1ccc(NC(=O)Cn2c(=O)n(Cc3nc(C)no3)c(=O)c3cc4c(cc32)OCO4)c(C)c1 10.6%, COc1ccc(S(=O)(=O)Nc2ccc(-c3ccc(N4CCCC4)nn3)cc2)cc1F 2.32%, Cc1ccc(CCNC(=O)c2ccc3c(c2)nc2n3CCCCC2)cc1 4.3%, CCOc1ccc(OCC(=O)NCCS(=O)(=O)N2CCN(c3ccccc3F)CC2)cc1 -12.3%, COC(=O)CNC(=O)C1CCN(S(=O)(=O)c2cccc3nsnc23)CC1 15.3%, CC(=O)c1ccc(N2CCN(C(=O)CCC(=O)Nc3ccc4nc(N5CCCCC5)cc(C)c4c3)CC2)cc1 26.5%, CCN(CC)c1ccc2cc(-c3nc(-c4cccs4)no3)c(=O)oc2c1 5.42%, Cc1ccccc1Cc1c(C)nc2nc(SCC(=O)N(C)c3ccccc3)nn2c1C -5.18%, CN(c1ccc(F)cc1)S(=O)(=O)N1CCCC(C(=O)NCc2cccc(Br)c2)C1 (stereo unspecified) 2.88%, Cc1ccc(-n2c(=O)c3c(cnn3C)n(CC(=O)Nc3ccc(C)cc3C)c2=O)cc1 3.94%, CC1=C(C(=O)Nc2ccc(C)cc2C)C(c2ccc([N+](=O)[O-])cc2)n2ncc(C(=O)Nc3ccc(F)cc3)c2N1 (stereo unspecified) 2.96%, COc1cc2c(Nc3ccc(Br)cc3F)ncnc2cc1OCC1CCN(C)CC1 -10.3%, COc1ccccc1CNC(=O)c1c(O)nc2c(C)cccn2c1=O -9.03%, CN(C)CCNC(=O)c1ccc2c(c1)NC(=O)C(CS(=O)(=O)Cc1cccc(Br)c1)N2 (stereo unspecified) -0.0491%, Cc1ccc(S(=O)(=O)N2CCCc3cc(NS(=O)(=O)c4cccc(Cl)c4)ccc32)cc1 -3.18%, COc1ccccc1NC(=O)CSc1nnc(NC(=O)Nc2ccc(C)cc2)s1 -24.1%, COc1ccccc1NC(=O)CCC(=O)N1CC(C)Oc2ccc(C)cc21 (stereo unspecified) 1.79%, CC(=O)c1ccc(NC(=O)CSc2nnc3ccc(-c4ccc(Br)cc4)nn23)cc1 6.74%, COc1ccc2c(c1)cc1c(=O)n(CC(=O)NC(C)C)nc(C)n12 -4.37%, CCc1ccc(NC(=O)C2CCCN2S(=O)(=O)c2ccc3c(c2)n(C)c(=O)c(=O)n3C)cc1 (stereo unspecified) 8.53%, Cc1ccc2nc(Cl)c3cc(C(=O)NC4CCCCC4)sc3c2c1 14.7%, COc1ccc(C(=O)Nc2nc3nc(C)c(Cl)c(=O)n3[nH]2)cc1 -1.89%, Cc1oc(-c2ccccc2Cl)nc1CS(=O)(=O)CC(=O)NC(C)CCc1ccccc1 (stereo unspecified) 7.69%, CCOC(=O)c1cc(S(=O)(=O)N2CCN(c3cc(Cl)ccc3C)CC2)[nH]n1 -0.276%, Cc1ccc(-c2cnc(NCc3c(F)cccc3Cl)n2C)cc1 -3.18%, CN1CCc2nc3sc(C(=O)Nc4c(F)cccc4F)c(N)c3cc2C1 -6.51%, CCOC(=O)c1ccc(NC(=O)c2nsc3ccccc23)cc1 -6.88%, CCCN(C(=O)Cn1cnc2sc(C)c(S(=O)(=O)N3CCN(c4ncccn4)CC3)c2c1=O)c1cccc(C)c1 55.8%, Cc1ccccc1NC(=O)CCc1c(C)nc2c(c1C)c(=O)n(C)c(=O)n2C 23.2%, Cc1nc(-c2cccc(S(=O)(=O)N3CCC(C(=O)NCc4ccccc4)CC3)c2)no1 17.4%, CCc1ccc(OCC(=O)Nc2c(C(=O)c3ccccc3)oc3ccccc23)cc1 3.86%, COc1ccc(OC)c(S(=O)(=O)Nc2ccc3[nH]c(=O)[nH]c3c2)c1 4.68%, COc1cccc(NC(=O)c2nnn(Cc3cccc(C(F)(F)F)c3)c2N)c1 9.68%, CCN(CC)S(=O)(=O)c1ccc(NC(=O)[C@H](CCSC)N2Cc3ccccc3C2=O)cc1 7.08%, Cc1ccc(S(=O)(=O)c2nnn3c2nc(N2CCCCC2)c2sccc23)cc1 0.614%, Cc1c(C(=O)NN2CCCCC2)nn(-c2ccc(Cl)cc2Cl)c1-c1ccc(Cl)cc1 -5.08%, CCc1nc(SCc2cc(=O)c3cc(F)ccc3[nH]2)n[nH]1 -5.82%, NC(=O)Cn1c(=O)n(-c2ccc(F)c(Cl)c2)c(=O)c2sc3ccccc3c21 6.77%, Cc1ccc(N2CCN(c3cc(C)nc4c(-c5ccc(Cl)cc5)c(C)nn34)CC2C)cc1 (stereo unspecified) -9.68%, Cc1cccc(Cn2c(-c3cccs3)nc3ccccc32)c1 -0.358%, CC(=O)c1cccc(NC(=O)CN2C(=O)CN(C)C(=O)c3ccccc32)c1 -2.35%, Cc1cc(C)cc(N(C)S(=O)(=O)c2nnc(NC(=O)COc3ccc(Cl)cc3)s2)c1 -6.06%, Cc1ccc(C)c2sc(N3CCN(C(=O)c4ccco4)CC3)nc12 0.205%, Cc1cc2nc(-c3cccc(NC(=O)COc4ccc(C(C)C)cc4)c3)oc2cc1C -2.38%, COc1ccc(N2CCN(C(=O)c3c(C)oc4nc(C)nc(N5CCCC5)c34)CC2)cc1 19.1%, Cc1nc2c([nH]1)CCN(C(=O)c1ccc(NC(=O)c3ccccc3-c3ccccc3)cc1)c1ccccc1-2 -9.49%, Cc1ccccc1-c1nnc(SCC(=O)N2CCCc3ccccc32)o1 -3.33%, COc1ccc(-c2nc(C)c(CCNC(=O)c3cccs3)s2)cc1 -5.39%, O=C1c2ccccc2C(=O)C1(c1ccccc1)N1CCN(c2cccc(C(F)(F)F)c2)CC1 -19.9%, CC(C)c1ccc(N2C(=O)CSC23C(=O)N(Cc2ccccc2F)c2ccccc23)cc1 (stereo unspecified) -3.35%, Cc1ccc(NC(=O)N2CCC(CN3CCCCCC3)CC2)c(Cl)c1 2.76%, Cc1nc(-c2ccc(S(=O)(=O)Nc3ccc(OC(F)(F)F)cc3)cc2)co1 13.3%, CCCNC(=O)c1c(NC(=O)c2ccccc2F)sc2c1CCCCC2 17.1%, COc1cccc(-n2c(=O)c3sccc3n(Cc3cc(=O)n4cc(Cl)ccc4n3)c2=O)c1 0.927%, CCC(=O)N1CCc2cc(S(=O)(=O)NCCC(=O)NCc3ccc(OC)cc3)ccc21 6.18%, COc1ccc(Cl)cc1NC(=O)c1cc2ccccn2n1 3.76%, COc1cc2c(cc1OC)CC(=O)N(CCCN(C)C[C@H]1Cc3cc(OC)c(OC)cc31)CC2 -3.17%, Cc1ccc(-c2nc(CCNC(=O)C(=O)Nc3ccc(F)cc3F)cs2)cc1 -10.6%, Cc1ccc(-c2nc3sc(CCNC(=O)c4ccco4)c(C)n3n2)cc1 7.91%, Fc1ccc(C(c2nnc(-c3ccccc3)o2)N2CCN(c3ccccc3)CC2)c(Cl)c1 (stereo unspecified) -17.3%, COc1ccccc1NCc1nnc2n1CCCCC2 -15.2%, Cc1ccc2c(c1)N(CC(=O)NCCCN1CCCCC1)C(=O)c1cccnc1O2 -1.68%, CCCOC(=O)c1c(NC(=O)c2cc3nc(-c4ccc(OC)cc4)cc(C(F)(F)F)n3n2)sc2c1CCCC2 13.3%, COc1cccc(NC(=O)CSc2c(C)cnc3c2c(=O)n(C)c(=O)n3C)c1 -2.08%, CCOc1ccc(N2CC(NC(=O)c3cc4ccccc4o3)CC2=O)cc1 (stereo unspecified) -10.9%, COc1cc([C@@H]2c3cc4c(cc3[C@H](O)[C@H]3COC(=O)[C@@H]23)OCO4)cc(OC)c1OC 25.9%

outcome, inactive:
Cc1sc2ncn(CC(=O)Nc3cccc(C(F)(F)F)c3)c(=O)c2c1S(=O)(=O)N1CCN(C)CC1, Cc1ccc(C(=O)c2c(N)c(C(=O)Nc3ccccc3Cl)c3ccccn23)cc1, Cc1c(C(=O)N2CCC(C)CC2)c(S(=O)(=O)NCc2ccc(Cl)cc2)c(C)n1C, COc1ccc(S(=O)(=O)NCCc2csc3nc(-c4cccc(C)c4)nn23)cc1F, CC1CCN(S(=O)(=O)c2ccc3c(c2)c(=O)c(C(=O)NCCc2ccccc2)cn3C)CC1, COc1ccccc1CNC(=O)CN(C)c1nn2c(=O)cc(C)nc2s1, COc1ccc(NC(=O)CC2C(=O)N(c3cccc(OC)c3)C(=O)N2Cc2cccnc2)cc1 (stereo unspecified), COc1ccc(OC)c(NC(=O)C(NS(=O)(=O)c2ccc3c(c2)CCCC(=O)N3)C(C)C)c1 (stereo unspecified), Cc1cc(=O)n2nc(N3CCC(C(=O)NCc4ccccc4Cl)CC3)sc2n1, Cc1cccc(CN2C(=O)c3ccccc3S(=O)(=O)c3ccc(C(=O)N4CCCC4)cc32)c1, COc1ccc(NS(=O)(=O)c2ccc3c(c2)oc(=O)n3C)cc1Cl, CCn1ccc2cc(S(=O)(=O)N3CCCN(C(=O)Nc4ccc(C)cc4)CC3)ccc21, Cn1c(=O)c2c(nc(SCC(=O)Nc3ccc(F)cc3)n2Cc2ccc(Cl)cc2)n(C)c1=O, CCOc1ccc(Cn2c(CNS(=O)(=O)c3cccs3)nc3cccnc32)cc1, CCOc1ccc(NC(=O)c2ccc3c(c2)c(C)c(C)n3Cc2ccc(F)cc2)cc1, Cc1ccc(NC(=O)Cn2ncc3c4ccccc4n(Cc4ccccc4)c3c2=O)cc1Cl, Cc1cn2c(=O)c(S(=O)(=O)NC(C)c3ccccc3)c(C)nc2s1 (stereo unspecified), Cc1ccc(N(C)S(=O)(=O)c2c(-c3ccccc3)csc2C(=O)O)cc1, CC(C)Oc1ccc(CNS(=O)(=O)c2csc(C(N)=O)c2)cc1, CCOc1ccccc1NC(=O)CCc1nc(-c2cccc(C)c2)no1, Cc1cccc(C(=O)OCc2cc(=O)n3nc(C4CC4)sc3n2)c1, Cc1ccc(-c2nc(C(=O)Nc3cccc(C#N)c3)c3n2CCCCC3)cc1, Cc1nc2nncn2c(Nc2ccc(F)cc2)c1C, Cc1ccc(C(=O)Nc2cc3cc(Cl)ccc3oc2=O)cc1, CC(C)C(=O)Nc1c(C(=O)N2CCN(c3ccccc3F)CC2)oc2ccccc12, COc1ccccc1CNC(=O)CCCN1C(=O)CCn2nc(-c3cn(C)c4ccccc34)cc21, Cc1ccc(CSc2nc3ccncc3n2Cc2nc(-c3ccc(Cl)cc3)oc2C)cc1
